Results from PubChem BioAssay AID485294 (National Center for Advancing Translational Sciences (NCATS), 2010).
The whole screen tested about 370,000 compounds, of which about 150 (0.041%) were called active. This list was built around the results that the source calls inconclusive (neither active nor inactive); the mix of calls is not that of the screen. The call rests on the fitted dose curve; in most records, active means well fitted inhibition curve with a large enough effect; inconclusive means small, poorly fitted or top-dose-only effect; inactive means flat fitted curve, though single readings scatter. No potency is given beside an inconclusive call; the fits are too rough.

These molecules were tested against Beta-lactamase (Escherichia coli (strain K12)) (UniProt P00811) (assay: qHTS Inhibitors of AmpC Beta-Lactamase (assay with detergent)). Conditions: AmpC hydrolysis of nitrocefin, absorbance 480 nm, 0.01% Triton; activity change, negative = inhibition: at 114 µM (top of the series).
Chain of UniProt P00811 (P00811 whole entry, looked up): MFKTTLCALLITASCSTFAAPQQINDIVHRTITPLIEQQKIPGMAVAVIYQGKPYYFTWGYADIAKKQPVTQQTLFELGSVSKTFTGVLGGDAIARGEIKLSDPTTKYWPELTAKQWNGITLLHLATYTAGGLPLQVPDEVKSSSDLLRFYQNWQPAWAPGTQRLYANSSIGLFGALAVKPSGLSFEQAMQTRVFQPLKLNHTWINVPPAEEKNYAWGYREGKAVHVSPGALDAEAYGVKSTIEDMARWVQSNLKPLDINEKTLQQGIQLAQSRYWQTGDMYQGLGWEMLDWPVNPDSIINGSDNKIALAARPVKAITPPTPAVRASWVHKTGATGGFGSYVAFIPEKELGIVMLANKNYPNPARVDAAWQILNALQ
Summary of the method: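 20 mM phosphate pH 7.0 + 0.01% (detergent screen) or 0.0001% Triton X-100; 5.3 nM AmpC reagent; cpd preinc 15 min RT; nitrocefin (800 uM stock) to start; A480 q20 s × 4 min; Activity was normalised to no-enzyme and no-compound control wells.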
Further: nearly all actives have a fitted effect of over 25% in size.
Potency means the concentration at half of the fitted maximal effect; tags describe the fitted curve by direction and shape.
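Wherever activity change, negative = inhibition is given: 0% = no-compound wells and -100% = no-enzyme wells.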

SMILES | Potency | activity change, negative = inhibition
CC(=O)Nc1nnc(SCC(=O)Nc2ccc(N3CCOCC3)c(Cl)c2)s1 | inconclusive [inhibitor, full curve] | 
O=S1(=O)CCN=C2SC3=C(CCCC3)N21 | inconclusive [inhibitor, full curve, poor fit] | 
O=C(c1ccccc1)c1cccc(NC(=O)c2ccco2)c1 |  | inactive: -13.2%
O=S(=O)(Nc1ccc(Br)cc1)N1CCOCC1 |  | inactive: 1.24%
Cc1ccc(NC(=O)COC(=O)c2ccn(C)n2)cc1 |  | inactive: -8.01%
CCNC(=S)N(CCc1c(C)[nH]c2ccc(C)cc12)Cc1cc(OC)c(OC)c(OC)c1 | inconclusive [inhibitor, full curve, poor fit] | 
O=C(c1ccc2c(c1)OCO2)N1CCOCC1 | inconclusive [inhibitor, full curve, poor fit] | 
COc1ccc(N(CC(=O)Nc2c(C)n(C)n(-c3ccccc3)c2=O)S(=O)(=O)c2ccc(F)cc2)cc1 |  | inactive: -3.31%
O=C(CSc1nnc(C23CC4CC(CC(C4)C2)C3)o1)Nc1ccc(N2CCOCC2)c(Cl)c1 | inconclusive [inhibitor, partial curve] | 
O=C1C(Cl)=C(NS(=O)(=O)c2ccc([N+](=O)[O-])cc2)C(=O)c2ccccc21 | inconclusive [inhibitor, partial curve, poor fit] | 
CCOC(=O)Cn1c(=O)oc2cc(S(=O)(=O)N3CCCc4ccccc43)ccc21 | inconclusive [inhibitor, partial curve, poor fit] | 
Cc1cc(Cl)ccc1OCC(=O)OCC(=O)c1c(N)n(C)c(=O)n(C)c1=O |  | inactive: -15.7%
Cc1ccc(C)c(NC(=O)Cn2nnc(-c3ccc(N4CCOCC4)cc3)n2)c1 | inconclusive [inhibitor, partial curve] | 
CCOc1ccc(NC(=O)CN(C)C(=O)c2ccccc2-n2cnnn2)cc1OCC | inconclusive [inhibitor, full curve, poor fit] | 
COc1cc(OC)cc(C(=O)NC(C(=O)O)C23CC4CC(CC(C4)C2)C3)c1 (stereo not given) | inconclusive [inhibitor, single point] | 
CC(=O)c1c(C)[nH]c(-c2ccccc2)nc1=S |  | inactive: 11%
CC(=O)Nc1ccccc1OCc1cnc(Cl)s1 |  | inactive: -1.05%
CN(C)C(=O)COC(=O)c1ccccc1Sc1ccccc1C#N | inconclusive [inhibitor, full curve, poor fit] | 

SMILES | Potency | activity change, negative = inhibition
O=c1c2c([nH]c3ccc(Br)cc13)CCCC2 | inconclusive [inhibitor, full curve] | 
CN(C)c1ccc(/C=N\NC(=O)c2ccc(Cn3cc(Cl)cn3)cc2)cc1 | inconclusive [inhibitor, partial curve, poor fit] | 
COc1ccc(CNC(=O)c2cnn3c(C(F)F)cc(C)nc23)cc1OC | inconclusive [inhibitor, partial curve, poor fit] | 
Cc1ccc(NC(=S)N2CCOCC2)cc1 |  | inactive: 0.472%
CC(C)(C)c1cc(CN2CCOCC2)c(C(=O)O)o1 |  | inactive: -11%
Cc1ccc2c(CN3CCOCC3)cc(=O)oc2c1 |  | inactive: -8.15%
COc1ccccc1N1CCN(/N=C/c2ccccc2C(=O)O)CC1 | inconclusive [inhibitor, full curve, poor fit] | 
O=C(CCCn1c(=O)oc2ccccc21)N1CCc2ccccc2C1 |  | inactive: -2.93%
CN(C)C(=O)Oc1ccc2nnc3ccnn3c2c1 | inconclusive [inhibitor, full curve, poor fit] | 
CCOC(=O)c1ccc(NC(=O)c2cn(CCC#N)nc2-c2ccc3c(c2)OCCO3)cc1 |  | inactive: -6.58%
O=[N+]([O-])c1cccc(S(=O)(=O)NC2CC3CCC2C3)c1 (stereo not given) | inconclusive [inhibitor, partial curve] | 
COc1ccc(CCNC(=O)Cn2c(=O)cc(C(F)(F)F)c3c(C)nn(C)c32)cc1OC |  | inactive: -2.56%
COc1ccc(NC(C)=O)cc1S(=O)(=O)NC(C)c1ccc(-n2ccnc2)cc1 (stereo not given) | inconclusive [inhibitor, full curve, poor fit] | 
COc1ccc(NC(=O)/C(=C\c2ccc3c(c2)OCO3)NC(C)=O)cc1 | inconclusive [inhibitor, single point] | 
CC(=O)N1CCOc2ccc(S(=O)(=O)N3CCN(c4cc(C)ccc4C)CC3)cc21 |  | inactive: -6.54%
Cc1ccc(NC(=O)c2cc(NC(=O)c3ccco3)ccc2N2CCCCC2)cc1 | inconclusive [inhibitor, full curve, poor fit] | 
COc1cccc(C2CC(c3ccccc3C)n3nc(N)nc3N2)c1 (stereo not given) | inconclusive [inhibitor, full curve] | 
